{"source": "paper PMC12040169", "about": "(PLOS Biology, 2025)", "note": "The list shows a part of the results.", "data": [{"system": "T1, C. trachomatis L2/434/Bu expressing GFP (CTL2-GFP)", "T1 construct": "L2/434/Bu GFP intracellular growth in HeLa cells", "parameters": "species or system HeLa; C. trachomatis total inclusion area by high-content imaging, normalised to DMSO", "details": "total inclusion area; 28.5 h, 10 µM; inhibitor", "in_short": "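Bulk GFP and resorufin signals were read first. Wells were then fixed, stained with Hoechst and imaged to detect GFP inclusions and host nuclei. MICs followed the previously described calculation.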", "values": [{"compound": "Cn1ccnc1C1(O)CC2CCC(C1)N2C(=O)c1ccc(F)cc1", "note": "(stereo not shown) [CBK284086]", "% of control remaining": 61.4472}, {"compound": "CCc1cnc(CN(C)C2CCN(Cc3cccc(C(N)=O)c3)C2)o1", "note": "(stereo not shown) [CBK305357]", "% of control remaining": 83.2085}, {"compound": "CNC(=O)c1nn(CCCc2ccc(OC)cc2)c2ccccc12", "note": "[CBK105842]", "% of control remaining": 50.5071}, {"compound": "COc1cc([C@@]23CC[C@@H](NC(=O)Nc4cc(F)ccc4F)C[C@@H]2N(C)CC3)ccc1OC(F)F", "note": "[CBK073834]", "% of control remaining": 51.9644}, {"compound": "Cc1ccc2nc(NC(=O)COc3ccccc3)sc2c1", "note": "[CBK287335]", "% of control remaining": 102.234}, {"compound": "COc1cc(-c2nnc(NC(C)=O)o2)cc(OC)c1OC", "note": "[CBK287698]", "% of control remaining": 85.8427}, {"compound": "CCOc1ccc(N(Cc2cc3cc(C)ccc3nc2O)C(=O)c2ccccc2OC)cc1", "note": "[CBK265427]", "% of control remaining": 101.763}, {"compound": "Cc1cc2ccccc2n2c(=O)n(CC(=O)N3CCCC3)nc12", "note": "[CBK283880]", "% of control remaining": 71.2239}, {"compound": "NC(=O)CO[C@@H]1CO[C@H]2[C@@H]1OC[C@@H]2NCc1ccccc1", "note": "[CBK289479]", "% of control remaining": 81.0999}, {"compound": "CC(=O)c1ccc(C(=O)Nc2nc3c(s2)COc2ccccc2-3)cc1", "note": "[CBK287363]", "% of control remaining": 68.4039}, {"compound": "O=c1[nH]nc2c3ccc(Cl)cc3ncn12", "note": "[CBK283988]", "% of control remaining": 56.3051}, {"compound": "O=C(O)c1ccc(OCCNS(=O)(=O)c2ccc3oc4ccccc4c3c2)cc1", "note": "[CBK299797]", "% of control remaining": 99.1341}, {"compound": "Cc1ccccc1C(NC(=O)C1CCN(C(=O)N(C)c2ccccc2)CC1)c1ccccn1", "note": "(stereo not shown) [CBK059721]", "% of control remaining": 68.6044}, {"compound": "COc1ccc(-c2cncc(C3CN(Cc4ccc(C)cc4OC)CCO3)n2)cc1", "note": "(stereo not shown) [CBK286100]", "% of control remaining": 90.6805}, {"compound": "O=C(CCCc1ccccn1)N(Cc1ccccn1)C1CCCC1", "note": "[CBK282033]", "% of control remaining": 90.1082}, {"compound": "CCN(CC)C(=O)CN1CCCN(c2nccc(OCCN3CCOCC3)n2)CC1", "note": "[CBK084094]", "% of control remaining": 83.647}, {"compound": "CC1CN(C)C(C)CC1OC(=O)C(c1ccccc1)c1ccccc1", "note": "(stereo not shown) [CBK087393]", "% of control remaining": 89.5528}, {"compound": "COc1ccc(Cn2nc(NC(=O)Nc3ccc(N(C)C)cc3)c3ccccc32)cc1", "note": "[CBK048529]", "% of control remaining": 93.5312}, {"compound": "CCOCCN1CCC(C(=O)NC(c2ccc(F)cc2)c2nc(OC)cc(OC)n2)CC1", "note": "(stereo not shown) [CBK148087]", "% of control remaining": 109.065}, {"compound": "Cc1ccccc1CSc1cccc(F)c1", "note": "[CBK002913]", "% of control remaining": 52.151}, {"compound": "O=C(c1cccc(Cl)c1)N1CCC(O)(c2cccnc2)CC1", "note": "[CBK283553]", "% of control remaining": 95.8738}, {"compound": "CC(C)C(=O)N1CC2(CCN(CCCCC3NC(=O)NC3=O)CC2)c2ccccc21", "note": "(stereo not shown) [CBK131471]", "% of control remaining": 89.1791}, {"compound": "O=c1[nH]c(=O)c2ccn([C@H]3C[C@@H](O)[C@@H](CO)O3)c2[nH]1", "note": "[CBK201331]", "% of control remaining": 82.1034}, {"compound": "CSc1nsc(SCC(=O)N2CCN(C(c3ccccc3)c3ccccc3)CC2)n1", "note": "[CBK268071]", "% of control remaining": 88.3003}, {"compound": "CC(C)CNc1ccc(-c2cccc(N(C)C)c2)cn1", "note": "[CBK037603]", "% of control remaining": 60.467}, {"compound": "O=C(Cc1ccccc1)Nc1nc(OCC(F)(F)F)cnc1-c1ccsc1", "note": "[CBK145298]", "% of control remaining": 90.056}, {"compound": "Brc1ccc(C2(c3nnc(C4CC4)o3)CCOCC2)cc1", "note": "[CBK305498]", "% of control remaining": 92.9859}, {"compound": "CCc1nc2c(OCCOc3ccc(F)cc3)cccn2c1N(C)C(=O)c1ccncc1", "note": "[CBK147472]", "% of control remaining": 120.514}, {"compound": "O=C1CCN([C@H]2C[C@@H](O)[C@@H](CO)O2)C(=O)N1", "note": "[CBK201288]", "% of control remaining": 96.5134}, {"compound": "COc1cc(F)cc(OC2CCNCC2)c1NC(=O)c1cnccn1", "note": "[CBK050296T]", "% of control remaining": 101.455}, {"compound": "CCCCOc1nccnc1-c1ccsc1", "note": "[CBK106778]", "% of control remaining": 95.9137}, {"compound": "COc1ccc(-c2ccc(/C=N/NC(=O)c3ccncc3)o2)c([N+](=O)[O-])c1", "note": "[CBK262156]", "% of control remaining": 94.8273}, {"compound": "COc1ccc(OC)c(NC(=O)COc2ccc(C(C)C)cc2)c1", "note": "[CBK263498]", "% of control remaining": 90.1626}, {"compound": "CCN(CC)C(=O)CN1CCC(Oc2cncc(Oc3ccc(OC)c(OC)c3)n2)C1", "note": "(stereo not shown) [CBK084404]", "% of control remaining": 89.0599}, {"compound": "O=S(=O)(O)CCCSCCCS(=O)(=O)O", "note": "[CBK278307N]", "% of control remaining": 106.706}, {"compound": "O=C(OCCC1SC(NC2CC3C=CC2C3)=NC1=O)c1cc(C(F)(F)F)ccc1C(F)(F)F", "note": "(stereo not shown) [CBK200058T]", "% of control remaining": 99.018}, {"compound": "Cc1ccccc1NC(=O)NCc1ccccc1", "note": "[CBK105833]", "% of control remaining": 35.6995}, {"compound": "COc1ccc(-c2nnc(N)[nH]2)cc1", "note": "[CBK028843]", "% of control remaining": 89.2657}, {"compound": "O=C(c1cccc2ncccc12)N1CCC(c2ccncc2)CC1", "note": "[CBK283798]", "% of control remaining": 75.9231}, {"compound": "O=C(CN1CCC(c2ccccc2F)CC1)N1CCOCC1", "note": "[CBK283548]", "% of control remaining": 85.5062}, {"compound": "CC(=O)c1ccc(-c2ccc3ccc(N)nc3n2)cc1", "note": "[CBK061862]", "% of control remaining": 89.2108}, {"compound": "COc1cc(F)ccc1-c1cnc(N)c2ncccc12", "note": "[CBK067585]", "% of control remaining": 70.3806}, {"compound": "CCc1c(C)nc2ccc(NC(C)=O)cc2c1SCCC(=O)O", "note": "[CBK159465T]", "% of control remaining": 105.721}, {"compound": "COc1ccc(-c2nnc(SC(C)c3nnc(-c4ccccc4)o3)n2CC(C)C)cc1", "note": "(stereo not shown) [CBK297108]", "% of control remaining": 76.4492}, {"compound": "O=C(c1ccco1)N1CCC[C@@H]1Cn1c(=O)oc2ccccc21", "note": "[CBK284538]", "% of control remaining": 110.901}, {"compound": "O=S(=O)(Cc1ccccc1)Nc1nnc(C(F)(F)F)s1", "note": "[CBK045539]", "% of control remaining": 85.8852}, {"compound": "Cn1cc(CN2CCCN(C(=O)CCCc3ccccn3)CC2)cn1", "note": "[CBK305347]", "% of control remaining": 94.2362}, {"compound": "c1ccc(SCCCN2CCNCC2)cc1", "note": "[CBK266067G]", "% of control remaining": 91.4014}, {"compound": "CCOCC1CCCN1C(=O)Nc1ccc2sc(C(=O)N(C)C)cc2c1", "note": "(stereo not shown) [CBK306601]", "% of control remaining": 77.625}, {"compound": "O=C(NCCc1ccccc1Cl)C1(Cc2ccc(-c3cccnc3)cc2)CCOCC1", "note": "[CBK285590]", "% of control remaining": 94.8399}, {"compound": "Cc1cc(C(=O)N2CCN(C)CC2)ccc1-c1cnc(N)c(-c2ccc(O)cc2)n1", "note": "[CBK126749]", "% of control remaining": 75.8409}, {"compound": "CC(C)[C@H](CO)Nc1nccnc1-c1ccco1", "note": "[CBK037390]", "% of control remaining": 97.2487}]}]}
